Experimental data reported in PubChem BioAssay AID761 (NMMLSC, 2007).
About 400 (0.21%) of roughly 190,000 compounds were called active. This list was built around the results that the source calls inconclusive (neither active nor inactive); the mix of calls is not that of the screen.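 The calls were made as follows: active = percent activity GTP binding at least 20 points away from the 100% baseline, either down as inhibitor or up as activator; inconclusive = compound flagged as likely green fluorescent from well-wide comparison; inactive = the rest.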

The compounds below were run against Cell division control protein 42 homolog (Homo sapiens) (UniProt P60953) (assay: wildtype Cdc42 fluorescent GTP binding changes, either direction – biochemical, multiplex bead flow cytometry, Bodipy-GTP, primary screen (AID 761;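 also: median bead fluorescence of bound Bodipy-FL-GTP at 100 nM; 0% = excess unlabeled GTP control and 100% = no compound control; below 100% means less GTP binding so inhibitor and above means activator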)). Details: GST-Cdc42 beads, at 10 µM, actives lie on both sides.
Sequence of UniProt P60953 (P60953 whole entry, looked up): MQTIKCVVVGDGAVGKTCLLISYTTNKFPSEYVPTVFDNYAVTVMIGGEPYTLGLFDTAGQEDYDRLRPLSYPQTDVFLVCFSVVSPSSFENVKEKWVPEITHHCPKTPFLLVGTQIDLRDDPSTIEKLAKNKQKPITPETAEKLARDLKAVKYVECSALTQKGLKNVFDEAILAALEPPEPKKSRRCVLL
For Cc1cc(C)nc(NS(=O)(=O)c2ccc(N/C=C/C(=O)c3ccc(Cl)cc3)cc2)n1, the percent activity (GTP binding) was inactive: 99%.
For Cc1ccc(NC(=O)C(C)NS(=O)(=O)c2ccc(F)cc2)cc1C (centres undefined), the percent activity (GTP binding) was inactive: 104%.
For CCOC(=O)Nc1ccc(NC(=O)OCC)cc1, the percent activity (GTP binding) was inconclusive: 108%.
COCCNC(=O)c1cc(S(=O)(=O)N2CCOCC2)ccc1SCc1cccc(OC)c1OC was tested, and the percent activity (GTP binding) was inactive: 99%.
O=C(CN1C(=O)NC2(CCCCC2)C1=O)N1CCc2ccccc2C1 was tested, and the percent activity (GTP binding) was inconclusive: 97%.
In the case of Cc1cc(Br)ccc1SCC(=O)OCC(=O)NC1CCCC1, the percent activity (GTP binding) is reported as inactive: 100%.
With COc1ccccc1OCCn1c(C(C)O)nc2ccccc21 (centres undefined) the percent activity (GTP binding) was inconclusive: 87%.
For COC1(OC)C(/C=C/c2ccc(C)cc2)C(C#N)(C#N)C1(OC)OC (centres undefined), the percent activity (GTP binding) was inconclusive: 102%.
With COc1ccc(-c2nc(Cc3ccc(Cl)cc3)no2)cc1OC the percent activity (GTP binding) was inconclusive: 107%.
For Cc1cc(N2CC(C(=O)O)CC2=O)ccc1Br (centres undefined), the percent activity (GTP binding) was inconclusive: 107%.
In the case of O=C(CNCc1cccs1)Nc1ccc(N2CCCCCC2)cc1, the percent activity (GTP binding) is reported as inactive: 98%.
CCC(C)(C)NC(=O)C(c1cccnc1)N(CCOC)C(=O)Cn1nnc2ccccc21 (centres undefined) was tested, and the percent activity (GTP binding) was inconclusive: 103%.
Cc1csc(NC(=O)CNS(=O)(=O)c2cccs2)n1 was tested, and the percent activity (GTP binding) was inconclusive: 107%.
COc1cc(/C=N/NC(=O)c2ccoc2C)cc(OC)c1O was tested, and the percent activity (GTP binding) was inconclusive: 103%.
With C=CCNC(=S)/C(=C(/[O-])c1ccccc1Br)[n+]1ccccc1 the percent activity (GTP binding) was inconclusive: 96%.
With COc1cc(C(C)=O)ccc1OCC(=O)NCC1(N2CCCCC2)CCCCC1 the percent activity (GTP binding) was inactive: 101%.
With COc1ccc(S(=O)(=O)N2CCC3(CC2)OCCO3)cc1 the percent activity (GTP binding) was inactive: 97%.
For N#Cc1ccc(-c2ccc(F)cc2)nc1Sc1ccc(F)cc1, the percent activity (GTP binding) was inconclusive: 107%.
For Cc1ccc(NC(=O)c2cc(-c3ccccc3)nn2-c2ccccc2)cc1, the percent activity (GTP binding) was inconclusive: 96%.
COc1cccc(NC(=O)N2CCN(c3nnnn3-c3ccccc3)CC2)c1 was tested, and the percent activity (GTP binding) was inactive: 97%.
COc1ccc(C(=O)Nc2ccc(S(=O)(=O)N3CCCCC3)cc2)cc1OC was tested, and the percent activity (GTP binding) was inconclusive: 95%.
For Cn1cccc1/C=C1\SC(=S)N(NC(=O)c2ccccc2)C1=O, the percent activity (GTP binding) was inconclusive: 92%.
With CCn1c(=N)c(S(=O)(=O)c2ccccc2)cc2c(=O)n3ccccc3nc21 the percent activity (GTP binding) was inactive: 88%.
For Cc1nn(-c2ccc(F)cc2)c(Cl)c1/C=C(\CC(=O)O)c1nc2ccccc2s1, the percent activity (GTP binding) was inconclusive: 78%.
For CC(NC(=O)COC(=O)c1cc(NS(=O)(=O)c2ccc(Cl)c([N+](=O)[O-])c2)ccc1O)C1CC2CCC1C2 (centres undefined), the percent activity (GTP binding) was inactive: 98%.
In the case of CN=C(Nc1cccc(OC)c1)SC1CC(=O)N(c2ccc(C(=O)O)cc2)C1=O (centres undefined), the percent activity (GTP binding) is reported as inactive: 98%.
With O=[N+]([O-])c1ccccc1Oc1ncccc1[N+](=O)[O-] the percent activity (GTP binding) was inconclusive: 93%.
In the case of CCn1c2ccccc2c2cc(/C=N/O)ccc21, the percent activity (GTP binding) is reported as inconclusive: 94%.
With Fc1ccc(-c2csc3ncnc(Cl)c23)cc1 the percent activity (GTP binding) was inconclusive: 101%.
With O=C(O)c1cccc(Oc2ccc([N+](=O)[O-])cc2)c1 the percent activity (GTP binding) was active: 127% [activator].
With CCC(C)N=C1Sc2nc3ccc(C)cc3cc2CN1CCOC (centres undefined) the percent activity (GTP binding) was inactive: 97%.
Cc1ccc(C2=NN(S(=O)(=O)c3ccccc3)C(c3ccccc3O)C2)cc1 (centres undefined) was tested, and the percent activity (GTP binding) was inconclusive: 114%.
In the case of O=C(Cn1cnc2cc([N+](=O)[O-])ccc2c1=O)NCCc1ccc(F)cc1, the percent activity (GTP binding) is reported as inconclusive: 80%.
In the case of OCCNCCOc1ccc(Cl)c(Cl)c1, the percent activity (GTP binding) is reported as inconclusive: 104%.
For O=C(Nc1cccnc1)c1ccc(CN2CCc3ccccc3C2)cc1, the percent activity (GTP binding) was inconclusive: 105%.
For CCOC(=O)c1cnc2cc3c(cn2c1=O)CCCC3, the percent activity (GTP binding) was inconclusive: 109%.
For Nc1c(S(=O)(=O)c2ccccc2)c2nc3ccccc3nc2n1/N=C/c1cccc(O)c1, the percent activity (GTP binding) was active: 74%.
For COC(=O)c1c(NC(=O)c2ccoc2C)sc2c1CCC2, the percent activity (GTP binding) was inconclusive: 98%.
In the case of CCOc1ccccc1NC(=O)CSc1ccc([N+](=O)[O-])cc1, the percent activity (GTP binding) is reported as inactive: 97%.
COc1ccc(OC)c(/C=N/NC(=O)c2cc[n+](CC(=O)c3ccccc3)cc2)c1 was tested, and the percent activity (GTP binding) was inconclusive: 106%.
For Cc1ccc(Cn2cc(/C=C/C(=O)O)c(-c3ccccc3)n2)cc1, the percent activity (GTP binding) was inconclusive: 106%.
For C/C(=N/NC(=O)c1cnccn1)c1cccs1, the percent activity (GTP binding) was inactive: 103%.
For CC(C)(C)C(=O)NC(=S)NCc1ccccc1, the percent activity (GTP binding) was inconclusive: 100%.
For CCC(CC)COC(=O)C(C#N)c1nc2ccccc2nc1N1CCOCC1 (centres undefined), the percent activity (GTP binding) was inconclusive: 105%.
For COc1ccc(N2CCN(C(=O)COc3ncnc4ccccc34)CC2)cc1, the percent activity (GTP binding) was inactive: 99%.
Cc1ccsc1/C=C(\C(=O)c1ccc(OC(C)C)cc1)c1nc2ccccc2o1 was tested, and the percent activity (GTP binding) was inactive: 98%.
COc1ccc2c(c1)nc(SCC(C)O)n2C (centres undefined) was tested, and the percent activity (GTP binding) was inconclusive: 106%.
For COCCn1c(C)cc(C(=O)COC(=O)/C=C/c2cccc(OC)c2)c1C, the percent activity (GTP binding) was inconclusive: 89%.
With COC(=O)c1sccc1-n1cccc1C(=O)C(=O)N1CCOCC1 the percent activity (GTP binding) was inactive: 96%.
Oc1ccccc1N=Nc1ccccc1O was tested, and the percent activity (GTP binding) was inconclusive: 95%.
For Cc1cccc(NC(=S)NNC(=O)c2ccc3c(c2)OCO3)c1, the percent activity (GTP binding) was inconclusive: 95%.
In the case of CCc1nnc(NS(=O)(=O)c2ccc(Nc3ccc4nonc4c3[N+](=O)[O-])cc2)s1, the percent activity (GTP binding) is reported as inactive: 81%.
O=C(O)c1ccc(Cn2c(SCc3cc(=O)n4cc(Br)ccc4n3)nc3ccsc3c2=O)cc1 was tested, and the percent activity (GTP binding) was inconclusive: 89%.
For COCCNC(=S)NCCCNc1nc2cc3c(cc2cc1C#N)OCO3, the percent activity (GTP binding) was inconclusive: 93%.
For Cc1occc1-c1nnc(SCC(=O)N(C)C)o1, the percent activity (GTP binding) was inactive: 96%.
For Cc1cc(C(F)(F)F)nc(SCC(=O)NC2=NC(=O)C(C)S2)n1 (centres undefined), the percent activity (GTP binding) was inconclusive: 104%.
In the case of Clc1ccc(CNc2ccc3nnc(-c4ccccc4)n3n2)cc1, the percent activity (GTP binding) is reported as inactive: 98%.
CCOC(=O)C1=C(N)OC(CCl)=C(C#N)C1c1ccsc1 (centres undefined) was tested, and the percent activity (GTP binding) was inactive: 103%.
In the case of Cc1cc(C(=O)CCl)c(C)n1-c1cccc(S(=O)(=O)N2CCOCC2)c1, the percent activity (GTP binding) is reported as inactive: 90%.
With Cc1cc(OC(=O)c2ccccc2)n(CCC#N)n1 the percent activity (GTP binding) was inconclusive: 105%.
In the case of O=C(Nc1nc(-c2ccc(S(=O)(=O)N3CCCC3)cc2)cs1)c1ccco1, the percent activity (GTP binding) is reported as inconclusive: 74%.
With O=C(/C=C/c1ccco1)NCC(=O)N/N=C/c1ccc(Cl)cc1 the percent activity (GTP binding) was inconclusive: 87%.
For Cc1ccc(S(=O)(=O)Nc2ccc(Br)cc2C(NCC(=O)O)c2ccccc2)cc1 (centres undefined), the percent activity (GTP binding) was inconclusive: 93%.
N#C/C(=C/c1ccc(-c2cc(C(=O)O)cc(C(=O)O)c2)o1)c1nc2ccccc2s1 was tested, and the percent activity (GTP binding) was active: 71%.
With Oc1ccc(Br)cc1C=Nc1ccc(Cl)cc1 the percent activity (GTP binding) was inconclusive: 92%.
In the case of O=C(Cc1cccc2ccccc12)Nc1ccc(N2CCOCC2)cc1, the percent activity (GTP binding) is reported as inactive: 97%.
With CC(=O)c1sc(NC(=O)c2ccc(C)c(C)c2)nc1C the percent activity (GTP binding) was inconclusive: 89%.
For S=C(Nc1cccc(Br)c1)N1CCn2cccc2C1c1cccnc1 (centres undefined), the percent activity (GTP binding) was inactive: 96%.
With COc1ccc(C(=O)N/C(=C\c2cccc([N+](=O)[O-])c2)C(=O)Nc2cccc(C(=O)O)c2)cc1 the percent activity (GTP binding) was active: 62%.
In the case of COc1cc2c(cc1NC(=O)CSc1ccccn1)oc1ccccc12, the percent activity (GTP binding) is reported as inconclusive: 106%.
OCCC1CN(Cc2cn[nH]c2C2CCCCC2)CCN1C1CCCC1 (centres undefined) was tested, and the percent activity (GTP binding) was inactive: 96%.
O=C(c1ccccc1)c1ccc(O)cc1O was tested, and the percent activity (GTP binding) was inconclusive: 112%.
In the case of Cc1ccc(-n2c(-c3cnccn3)n[nH]c2=S)c(Br)c1, the percent activity (GTP binding) is reported as active: 79%.
With O=C(O)CCCCCN1C(=O)C(O)=C(C(=O)/C=C/c2ccccc2)C1c1ccc2c(c1)OCO2 (centres undefined) the percent activity (GTP binding) was inconclusive: 86%.
CC(C)(C)C1CCc2onc(C(=O)Nc3cnn(Cc4ccc(F)cc4)c3)c2C1 (centres undefined) was tested, and the percent activity (GTP binding) was inconclusive: 105%.
With CC[C@H](C)[C@H](NC(N)=O)C(=O)Nc1ccccc1F the percent activity (GTP binding) was inactive: 98%.
With CCOc1cc(NC(=S)NCCCN(C)C)c(OCC)cc1NC(=O)c1cccs1 the percent activity (GTP binding) was inconclusive: 104%.
For c1ccc(CSc2nnnn2-c2cccc3ccccc23)nc1, the percent activity (GTP binding) was inconclusive: 104%.
With CCN(CC)S(=O)(=O)c1cccc(NC(=O)CN2C(=O)c3ccc([N+](=O)[O-])cc3C2=O)c1 the percent activity (GTP binding) was inactive: 104%.
In the case of COc1ccc(C(=O)NCc2nnc(SCC(=O)NCc3ccc(F)cc3)o2)cc1, the percent activity (GTP binding) is reported as inconclusive: 104%.
COc1ccccc1C1(O)CCN(CC(=O)Nc2nc(-c3ccccc3)cs2)CC1 was tested, and the percent activity (GTP binding) was inactive: 96%.
For COc1cc(/C=N/Nc2nncn2/N=C/c2ccc(O)c(OC)c2)ccc1O, the percent activity (GTP binding) was active: 77%.
With O=C(NNC(=O)c1cccc(O)c1)Nc1ccc([N+](=O)[O-])cc1 the percent activity (GTP binding) was inconclusive: 96%.
For CCOc1ccc(C(=O)NCC(=O)N2CCC(C)CC2)cc1OCC, the percent activity (GTP binding) was inactive: 91%.
In the case of O=C1/C(=C\c2ccc(-c3ccccc3Cl)o2)SC(=S)N1CC1CCCO1 (centres undefined), the percent activity (GTP binding) is reported as active: 63%.
CSc1cccc(NS(=O)(=O)c2cccc3nsnc23)c1 was tested, and the percent activity (GTP binding) was inconclusive: 101%.
For CC1CN(C(=O)CSc2nnc(-c3ccncc3)n2-c2ccccc2)CC(C)O1 (centres undefined), the percent activity (GTP binding) was inconclusive: 89%.
With O=C(CCc1nnc(C2(c3ccc(Cl)cc3)CCC2)o1)NCCCn1cccn1 the percent activity (GTP binding) was inactive: 96%.
For COC(=O)c1sccc1NC(=O)Nc1cccc(F)c1, the percent activity (GTP binding) was inconclusive: 89%.
For COc1ccc2cc(C)c3nnc(SCc4cccnc4)n3c2c1, the percent activity (GTP binding) was active: 79%.
With O=C1CCCc2ccccc2N1Cc1ccccc1 the percent activity (GTP binding) was inconclusive: 92%.
In the case of O=C(COC(=O)C1CCCCC1)Nc1ccc([N+](=O)[O-])cc1, the percent activity (GTP binding) is reported as inactive: 96%.
For Cc1cc(C)nc(NS(=O)(=O)c2ccc(NC(=O)CCC3COc4ccccc4O3)cc2)n1 (centres undefined), the percent activity (GTP binding) was inconclusive: 96%.
CC(C)C(=O)Nc1c(O)c2ccccc2[nH]c1=O was tested, and the percent activity (GTP binding) was inconclusive: 96%.
